Screen size: about 310,000 compounds; about 2,200 (0.71%) showed an effect of 50% or more. Effects have a minus sign here. This is one part of the list.
Target: human ether-à-go-go-related gene (hERG) potassium channel (human, UniProt Q12809)
Experiment: primary screen, population patch clamp on CHO cells stably expressing hERG

Sequence of human ether-à-go-go-related gene (hERG) potassium channel (Q12809 whole entry, looked up): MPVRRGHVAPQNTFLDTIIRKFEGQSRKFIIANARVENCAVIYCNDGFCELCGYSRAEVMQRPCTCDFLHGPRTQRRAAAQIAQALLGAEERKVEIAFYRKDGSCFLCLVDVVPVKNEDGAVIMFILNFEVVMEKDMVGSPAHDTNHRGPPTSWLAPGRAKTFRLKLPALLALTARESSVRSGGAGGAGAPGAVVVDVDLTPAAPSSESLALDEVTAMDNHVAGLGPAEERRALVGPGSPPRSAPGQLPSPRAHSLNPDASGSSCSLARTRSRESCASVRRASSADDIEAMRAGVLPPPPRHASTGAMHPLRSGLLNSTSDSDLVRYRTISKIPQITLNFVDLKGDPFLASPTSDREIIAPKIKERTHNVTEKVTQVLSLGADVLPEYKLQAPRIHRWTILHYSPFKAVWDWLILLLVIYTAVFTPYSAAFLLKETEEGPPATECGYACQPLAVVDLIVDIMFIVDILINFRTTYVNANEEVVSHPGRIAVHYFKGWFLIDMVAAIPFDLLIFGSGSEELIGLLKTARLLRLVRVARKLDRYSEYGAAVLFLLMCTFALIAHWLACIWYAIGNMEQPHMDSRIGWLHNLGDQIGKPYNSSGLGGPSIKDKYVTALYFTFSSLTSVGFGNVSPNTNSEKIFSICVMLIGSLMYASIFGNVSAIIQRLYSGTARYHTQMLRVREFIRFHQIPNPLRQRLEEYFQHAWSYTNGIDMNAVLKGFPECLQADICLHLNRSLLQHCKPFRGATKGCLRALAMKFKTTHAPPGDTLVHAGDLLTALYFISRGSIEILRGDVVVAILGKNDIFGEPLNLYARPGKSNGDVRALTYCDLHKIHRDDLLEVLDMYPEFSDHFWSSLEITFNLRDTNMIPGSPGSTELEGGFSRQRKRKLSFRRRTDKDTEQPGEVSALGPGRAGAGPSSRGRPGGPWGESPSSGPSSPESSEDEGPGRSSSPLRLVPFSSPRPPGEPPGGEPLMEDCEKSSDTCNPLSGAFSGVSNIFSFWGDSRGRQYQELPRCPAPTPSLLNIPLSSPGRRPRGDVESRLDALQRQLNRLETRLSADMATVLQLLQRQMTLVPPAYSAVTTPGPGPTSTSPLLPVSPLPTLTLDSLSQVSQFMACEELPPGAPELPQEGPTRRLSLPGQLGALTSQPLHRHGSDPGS

First: CCN(CC(=O)Nc1ccccc1C(F)(F)F)C(=O)CSCc1ccc(C)cc1
Second: CCN(CC)CCNC(=O)Cn1nc(-c2ccc(C)cc2)ccc1=O
The “hERG current change (%, negative = inhibition) at 1uM” value of the first is higher: 14% for the first, 10.6% for the second.

Compared with `CC(C(=O)O)N(C(=O)c1ccccc1)c1ccc(F)c(Cl)c1` (stereo not drawn), `CCOc1ccc(N(CC)C(=O)Cc2c(C(=O)O)n(C)c3ccccc23)cc1` is lower in “hERG current change (%, negative = inhibition) at 1uM” value: 14.1% for the first, 12.7% for the second.

First: O=S(=O)(Cc1cc(-c2ccccc2)no1)c1ccccc1
Second: COc1cccc(/C=N\Nc2nncc(-c3ccccc3)n2)c1
The “hERG current change (%, negative = inhibition) at 1uM” value of the first is lower: 3.83% for the first, 9.9% for the second.

First: O=C(OCc1ccccc1Cl)C1CC(=O)N(Cc2ccco2)C1 (stereo not drawn)
Second: COc1ccccc1C(=O)COC(=O)c1cccc(S(=O)(=O)N2CCCC2)c1
The “hERG current change (%, negative = inhibition) at 1uM” value of the first is higher: 19.9% for the first, 9.99% for the second.

Compared with `CCS(=O)(=O)N1Cc2ccccc2CC1C(=O)N(C)CC(=O)Nc1ccc(F)c(F)c1F` (stereo not drawn), `CCCc1c(C(=O)Nc2ccc(F)cc2F)cnn1-c1ccccc1` is higher in “hERG current change (%, negative = inhibition) at 1uM” value: 15.3% for the first, 17.6% for the second.

Going from `COc1cccc(OCc2cc(/C=N/NC(=O)c3ccn[nH]3)ccc2OC)c1` to `COc1cccc(OC)c1C(=O)O/N=C(\N)c1ccncc1`, the “hERG current change (%, negative = inhibition) at 1uM” value rises from 0.0878% to 14%.

Compared with `Cc1ccc(NC(=O)C2CCCN(S(=O)(=O)c3cccs3)C2)cc1` (stereo not drawn), `CCc1nnc(NC(=O)C2CCCN(S(=O)(=O)c3ccccc3)C2)s1` (stereo not drawn) is higher in “hERG current change (%, negative = inhibition) at 1uM” value: 6.25% for the first, 9.52% for the second.

Going from `COc1ccc(CN2CCC(C(=O)c3ccc(Cl)cc3)CC2)cc1` to `COc1ccc(C(=O)Oc2cc(C(=S)N3CCOCC3)ccc2OC)cc1`, the “hERG current change (%, negative = inhibition) at 1uM” value rises from -80.9% to 15.1%.

First: O=C(Nc1ccccc1)c1ccccc1O
Second: O=C(CCOc1ccccc1)Nc1ccc(S(=O)(=O)N2CCCC2)cc1
The “hERG current change (%, negative = inhibition) at 1uM” value of the first is higher: 20.3% for the first, 1.8% for the second.

Going from `COc1ccc(C(=O)O)c(OC)n1` to `CCOC(=O)/C(C#N)=C1\C=CN(C)C(C)=N1`, the “hERG current change (%, negative = inhibition) at 1uM” value falls from 5.36% to 4.92%.

First: O=S(=O)(c1ccc(Cl)cc1)N1CCN(S(=O)(=O)N2CCCCCC2)CC1
Second: O=C(Cn1c(=O)oc2cc(S(=O)(=O)N3CCCC3)ccc21)N1CCN(c2ccccc2F)CC1
The “hERG current change (%, negative = inhibition) at 1uM” value of the first is higher: 8.07% for the first, 7.28% for the second.

First: COc1ccc(CCN(Cc2cc3cc(C)cc(C)c3nc2Cl)C(=O)C2CC2)cc1
Second: COc1ccc(-c2nnc(SCC(=O)NCc3cccs3)n2CC(C)C)cc1
The “hERG current change (%, negative = inhibition) at 1uM” value of the first is higher: 14.6% for the first, 2.93% for the second.

Compared with `Cc1ccsc1/C=N/Nc1cccc(C(=O)O)c1`, `CCN1C(=O)CSC1=Nc1ccc(C(=O)O)cc1` is higher in “hERG current change (%, negative = inhibition) at 1uM” value: -2.31% for the first, 16.6% for the second.

Compared with `Cc1c(C)n(CCCN(C)C)c2ncnc(Nc3ccccc3)c12`, `CCc1c(C)nc2ncnn2c1NCCc1ccccc1` is lower in “hERG current change (%, negative = inhibition) at 1uM” value: 5.94% for the first, -6.11% for the second.

Going from `CCCCC1=CC2=C(c3ccco3)C(=O)C(C)(OC(=O)c3ccc(OC)cc3)C(=O)C2=CN1C1CCCC1` (stereo not drawn) to `CCCOc1ccc(/C(O)=C2/C(=O)C(=O)N(CCCn3ccnc3)C2c2cccs2)cc1` (stereo not drawn), the “hERG current change (%, negative = inhibition) at 1uM” value rises from 14.8% to 18.1%.

First: O=C1COc2ccc(C(=O)COC(=O)C3CCN(S(=O)(=O)c4cccs4)CC3)cc2N1
Second: O=C(Nc1ccc2c(c1)OCO2)C1CCN(S(=O)(=O)Cc2ccccc2)CC1
The “hERG current change (%, negative = inhibition) at 1uM” value of the first is lower: -4.83% for the first, 10.9% for the second.

Compared with `Oc1ccc(Cl)cc1CNc1nccs1`, `C=CCn1c(NCc2cc(Cl)ccc2O)nc2ccccc21` is higher in “hERG current change (%, negative = inhibition) at 1uM” value: 15.1% for the first, 15.3% for the second.

First: O=C(CSc1ccc(-c2cccc([N+](=O)[O-])c2)nn1)N1CCCCC1
Second: O=C(CSc1nnc(-c2ccncc2)n1C1CCCCC1)Nc1cccc(O)c1
The “hERG current change (%, negative = inhibition) at 1uM” value of the first is lower: 10.9% for the first, 15.4% for the second.

Compared with `COc1ccc(C2=NN(c3ccc(C=O)cc3)C(c3ccccc3)C2)cc1` (stereo not drawn), `CCN(CC)CC1C(=O)N(c2ccc(OC)cc2)C1c1ccccc1` (stereo not drawn) is lower in “hERG current change (%, negative = inhibition) at 1uM” value: 19.7% for the first, 7.47% for the second.

First: CCOc1cc(/C=C2\C(=N)N3N=C(S(=O)(=O)CC)SC3=NC2=O)ccc1OC(=O)c1ccco1
Second: COC(=O)c1cccnc1-n1c(=O)c2cccnc2n(Cc2cccc([N+](=O)[O-])c2)c1=O
The “hERG current change (%, negative = inhibition) at 1uM” value of the first is higher: 16.2% for the first, 2.09% for the second.

Going from `CN(C(=O)CSc1nnnn1-c1ccccc1)C1CCCCC1` to `CC(=O)N1c2ccc(S(=O)(=O)N(C)C3CCCCC3)cc2CC1C` (stereo not drawn), the “hERG current change (%, negative = inhibition) at 1uM” value falls from 0.0266% to -4.1%.

Going from `CC(C)(C)C(=O)O/N=C(\N)c1ccc(-c2csnn2)cc1` to `CCN(CC)c1ccc(C(=O)NNC(=O)c2cccn2C)cc1`, the “hERG current change (%, negative = inhibition) at 1uM” value falls from 13.8% to 6.51%.

First: COc1ccc(C2OCC3(CO2)SC(=O)NC3=O)cc1OC (stereo not drawn)
Second: CCCC1(C(=O)OC)NC(c2ccc(OC)c(OC)c2)C2C(=O)N(c3cccc(C(C)=O)c3)C(=O)C21 (stereo not drawn)
The “hERG current change (%, negative = inhibition) at 1uM” value of the first is lower: 9.03% for the first, 11.9% for the second.

Compared with `COCCNC(=O)C(c1ccc(F)cc1)N(Cc1ccco1)C(=O)CCC(=O)Nc1nccs1` (stereo not drawn), `COc1ccc(N(CC(=O)NCc2ccccn2)S(=O)(=O)c2ccccc2[N+](=O)[O-])c(OC)c1` is higher in “hERG current change (%, negative = inhibition) at 1uM” value: 6.71% for the first, 9.62% for the second.

First: CCOC(=O)C1CCCN(C(=O)c2ccc(C)c(S(=O)(=O)N3CCCCC3)c2)C1 (stereo not drawn)
Second: Cc1ccc(C(=O)Oc2cccc(NC(=O)c3cccs3)c2)cc1S(=O)(=O)N1CCOCC1
The “hERG current change (%, negative = inhibition) at 1uM” value of the first is lower: -2.16% for the first, -0.011% for the second.

First: Cn1c2c(c(=O)n(C)c1=O)C(CC(=O)Nc1ccc(F)cc1)C(=O)N2 (stereo not drawn)
Second: CCOc1ccc(NC(=O)Nc2ccc(NC(C)=O)cc2)cc1
The “hERG current change (%, negative = inhibition) at 1uM” value of the first is lower: 1.61% for the first, 16.5% for the second.

Going from `CCS(=O)(=O)N1CCC(C(=O)Nc2ccc3c(c2)CCC3)CC1` to `CCS(=O)(=O)N1CCN(c2ccc([N+](=O)[O-])c(NCc3cccnc3)c2)CC1`, the “hERG current change (%, negative = inhibition) at 1uM” value rises from -1.82% to 0.286%.

First: N#Cc1sc2nc3c(c(-c4cccnc4)c2c1N)CCC3
Second: N#Cc1cccn1-c1nccc(-c2cccs2)n1
The “hERG current change (%, negative = inhibition) at 1uM” value of the first is lower: -10.6% for the first, 11.4% for the second.

First: C=CCn1c(=O)c2ccccc2n2c(SCc3nc(N)nc(Nc4ccccc4C)n3)nnc12
Second: COc1ccccc1-n1c(/C=C/c2ccccn2)nc2ccccc2c1=O
The “hERG current change (%, negative = inhibition) at 1uM” value of the first is lower: 3.47% for the first, 6.81% for the second.

First: Cc1c(O)cccc1C(=O)N[C@@H](CSc1ccccc1)[C@H](O)CN1C[C@H]2CCCC[C@H]2C[C@H]1C(=O)NC(C)(C)C
Second: Cc1nn(CC(=O)OCC(=O)NC(C)c2ccccc2)c(C)c1[N+](=O)[O-] (stereo not drawn)
The “hERG current change (%, negative = inhibition) at 1uM” value of the first is higher: 8.45% for the first, 4.56% for the second.

Compared with `Cc1cc(C)n2nc(S(=O)(=O)NC3CCCCC3)nc2n1`, `CCc1nnc(SCC(=O)NC2CCCC2)nc1CC` is lower in “hERG current change (%, negative = inhibition) at 1uM” value: 9.08% for the first, -0.987% for the second.

First: CCCCN(C)S(=O)(=O)c1ccc(C(=O)N(CCN(C)C)c2nc3ccc(C)cc3s2)cc1.Cl
Second: Cc1ccc(S(=O)(=O)N(C)CC(=O)NCc2ccncc2)cc1
The “hERG current change (%, negative = inhibition) at 1uM” value of the first is higher: 2.16% for the first, -5.58% for the second.

First: OCCNCCO
Second: CCCCN(CC)CCNC(=O)c1[nH]c(C)c(C(C)=O)c1C
The “hERG current change (%, negative = inhibition) at 1uM” value of the first is lower: 3.96% for the first, 6.32% for the second.

Compared with `CN(C)C=O.Cc1ccc(-c2cc(-c3n[nH]c(=S)o3)c3ccccc3n2)cc1`, `Cc1cc2c(C)nc(Cc3ccccc3)nc2o1` is lower in “hERG current change (%, negative = inhibition) at 1uM” value: 14.9% for the first, 10.2% for the second.

Going from `O=C(CSc1ccccc1F)NCC1(N2CCCCC2)CCCCC1` to `Cc1oc(-c2ccccc2F)nc1CS(=O)(=O)CC(=O)NCCN1CCCC1`, the “hERG current change (%, negative = inhibition) at 1uM” value rises from 5.47% to 16.9%.

Compared with `CNC(=O)CSc1nc2cc(S(=O)(=O)Nc3ccccc3OC)ccc2o1`, `COc1cc(NS(=O)(=O)c2ccc3ccccc3c2)c2ncccc2c1` is higher in “hERG current change (%, negative = inhibition) at 1uM” value: 9.52% for the first, 9.9% for the second.

Going from `C=C1C(O)(c2ccccc2)C2CC[N+]1(C)CC2.[Cl-]` (stereo not drawn) to `Cc1ccc(C2N(c3ccccn3)C(=O)C3CCCN32)o1` (stereo not drawn), the “hERG current change (%, negative = inhibition) at 1uM” value falls from 12.1% to 8.76%.

Compared with `CCn1c(SCc2ccccc2)nc2c(c1=O)SCC2`, `CCC(=NCC1CCCO1)c1c(O)n(-c2ccccc2C)c(=O)[nH]c1=O` (stereo not drawn) is higher in “hERG current change (%, negative = inhibition) at 1uM” value: 2.26% for the first, 19.4% for the second.

Going from `O=C(C1CCN(C2CCN(Cc3cccc4c3OCO4)CC2)CC1)N1CCOCC1` to `Cc1ccc(CN2C(=O)CCC2C(=O)NCCN2CCOCC2)cc1` (stereo not drawn), the “hERG current change (%, negative = inhibition) at 1uM” value rises from 7.4% to 8.86%.

Going from `COc1cc(CNC(=O)CCC(=O)N2C[C@H]3C[C@H](C2)c2cccc(=O)n2C3)cc(OC)c1OC` to `COc1cc(C(=O)NCCSc2ccc(Br)cc2)cc(OC)c1OC`, the “hERG current change (%, negative = inhibition) at 1uM” value falls from 8.04% to 7.49%.

First: CCC(=O)NC(Nc1cccc(C)n1)(C(F)(F)F)C(F)(F)F
Second: CCc1cc2cc3c(cc2nc1SCC(=O)Nc1nnc(C)s1)OCCO3
The “hERG current change (%, negative = inhibition) at 1uM” value of the first is higher: 13.3% for the first, 12% for the second.

First: CCOc1ccc(C2CC(c3cccc(OC)c3)Nc3nc(N)nn32)cc1 (stereo not drawn)
Second: O=C1CSC(c2cccnc2)N1Cc1cccnc1 (stereo not drawn)
The “hERG current change (%, negative = inhibition) at 1uM” value of the first is lower: -5.32% for the first, 13% for the second.

Compared with `Cc1sc2nc(SCC(=O)O)[nH]c(=O)c2c1C`, `Cc1nc2[nH]c(=S)n(C)c(=O)c2nc1C` is higher in “hERG current change (%, negative = inhibition) at 1uM” value: 1.56% for the first, 16.1% for the second.

First: O=C(O)COc1ccc2c(c1)OCCO2
Second: Cc1ccccc1OC(C)C(=O)NCCCN1CCOCC1 (stereo not drawn)
The “hERG current change (%, negative = inhibition) at 1uM” value of the first is lower: 4.83% for the first, 15.7% for the second.

Compared with `NC(=O)c1nc(N2CCOCC2)nc(N2CCOCC2)n1`, `COc1ccccc1N1CCN(S(=O)(=O)c2ccc(Br)s2)CC1` is lower in “hERG current change (%, negative = inhibition) at 1uM” value: 15.7% for the first, -5.53% for the second.

— article PMC4336329 (PLoS ONE, 2015)
